Source: publication PMC12820563
Some of the results follow. The list includes weakly bound sequences.

Biological target: T1, MBP-FoxP3dN (UniProt Q99JB6)
T1 sequence: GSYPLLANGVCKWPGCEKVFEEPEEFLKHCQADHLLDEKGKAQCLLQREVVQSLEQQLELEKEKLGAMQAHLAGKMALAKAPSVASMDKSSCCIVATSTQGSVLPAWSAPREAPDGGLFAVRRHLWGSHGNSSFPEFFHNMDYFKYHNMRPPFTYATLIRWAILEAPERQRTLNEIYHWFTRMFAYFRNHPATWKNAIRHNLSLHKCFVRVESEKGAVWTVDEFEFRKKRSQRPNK
Experiment: PD-seq (MBP pull-down with sequencing)
Conditions: 20 mM Tris-HCl pH 7.5, 100 mM NaCl, 1.5 mM MgCl2, 0.4 uM protein, 0.1 uM dsDNA library, 30 min, room temperature, amylose pull-down; high values mean tight binding; double strand, one strand shown

Row | Sequence | binding signal (RPM ratio (pull-down/input))
1 | GATGATTGTTCTCCCAGCTGATGAATTAGCGGAGTCGAGTAAACAAATTTTCCTAATCTTTCTGTTCAAGCGCCATCTAC | 0.232
2 | GATGATTGTTCTCCCAGCTGATGAATTAGCGGGTTCGAGTAAACAAATTTTCCTAATCTTTCTGTTCAAGCGCCATCTAC | 0.418
3 | GATGATTGTTCTCCCAGCTGATGAATTGAATCTTTCGAGTAAACAAATTTTCCTAATCTTTCTGTTCAAGCGCCATCTAC | 0.345
4 | GATGATTGTTCTCCCAGCTGATGAATTAGAAGAATCGAGTAAACAAATTTTCCTAATCTTTCTGTTCAAGCGCCATCTAC | 0.187
5 | GATGATTGTTCTCCCAGCTGATGAATTAGATCTGTCGAGTAAACAAATTTTCCTAATCTTTCTGTTCAAGCGCCATCTAC | 0.336
6 | GATGATTGTTCTCCCAGCTGATGAATTACGACTGTCGAGTAAACAAATTTTCCTAATCTTTCTGTTCAAGCGCCATCTAC | 0.86
7 | GATGATTGTTCTCCCAGCTGATGAATTCCTGTATTCGAGTAAACAAATTTTCCTAATCTTTCTGTTCAAGCGCCATCTAC | 1.12
8 | GATGATTGTTCTCCCAGCTGATGAATTTGTCGTTTCGAGTAAACAAATTTTCCTAATCTTTCTGTTCAAGCGCCATCTAC | 5.18
9 | GATGATTGTTCTCCCAGCTGATGAATTCTGATGGTCGAGTAAACAAATTTTCCTAATCTTTCTGTTCAAGCGCCATCTAC | 0.848
10 | GATGATTGTTCTCCCAGCTGATGAATTGAGAAATTCGAGTAAACAAATTTTCCTAATCTTTCTGTTCAAGCGCCATCTAC | 0.462
11 | GATGATTGTTCTCCCAGCTGATGAATTTTGTTGCTCGAGTAAACAAATTTTCCTAATCTTTCTGTTCAAGCGCCATCTAC | 5.63
12 | GATGATTGTTCTCCCAGCTGATGAATTCGGATGCTCGAGTAAACAAATTTTCCTAATCTTTCTGTTCAAGCGCCATCTAC | 0.955
13 | GATGATTGTTCTCCCAGCTGATGAATTGGAAATTTCGAGTAAACAAATTTTCCTAATCTTTCTGTTCAAGCGCCATCTAC | 0.27
14 | GATGATTGTTCTCCCAGCTGATGAATTGAGGATGTCGAGTAAACAAATTTTCCTAATCTTTCTGTTCAAGCGCCATCTAC | 0.353
15 | GATGATTGTTCTCCCAGCTGATGAATTGGTACAATCGAGTAAACAAATTTTCCTAATCTTTCTGTTCAAGCGCCATCTAC | 0.781
16 | GATGATTGTTCTCCCAGCTGATGAATTTCCTGCCTCGAGTAAACAAATTTTCCTAATCTTTCTGTTCAAGCGCCATCTAC | 0.341
17 | GATGATTGTTCTCCCAGCTGATGAATTATTGTGATCGAGTAAACAAATTTTCCTAATCTTTCTGTTCAAGCGCCATCTAC | 2.16
18 | GATGATTGTTCTCCCAGCTGATGAATTCGAGTGGTCGAGTAAACAAATTTTCCTAATCTTTCTGTTCAAGCGCCATCTAC | 0.496
19 | GATGATTGTTCTCCCAGCTGATGAATTCCGGCACTCGAGTAAACAAATTTTCCTAATCTTTCTGTTCAAGCGCCATCTAC | 0.388
20 | GATGATTGTTCTCCCAGCTGATGAATTTTGTATGTCGAGTAAACAAATTTTCCTAATCTTTCTGTTCAAGCGCCATCTAC | 6.01

Row | Sequence | binding signal (RPM ratio (pull-down/input))
21 | GATGATTGTTCTCCCAGCTGATGAATTACACGAGTCGAGTAAACAAATTTTCCTAATCTTTCTGTTCAAGCGCCATCTAC | 0.36
22 | GATGATTGTTCTCCCAGCTGATGAATTATTTGGATCGAGTAAACAAATTTTCCTAATCTTTCTGTTCAAGCGCCATCTAC | 0.974
23 | GATGATTGTTCTCCCAGCTGATGAATTCTTGGGCTCGAGTAAACAAATTTTCCTAATCTTTCTGTTCAAGCGCCATCTAC | 0.211
24 | GATGATTGTTCTCCCAGCTGATGAATTTATGCGGTCGAGTAAACAAATTTTCCTAATCTTTCTGTTCAAGCGCCATCTAC | 1.09
25 | GATGATTGTTCTCCCAGCTGATGAATTGCCAGGCTCGAGTAAACAAATTTTCCTAATCTTTCTGTTCAAGCGCCATCTAC | 0.568
26 | GATGATTGTTCTCCCAGCTGATGAATTCGCCGCTTCGAGTAAACAAATTTTCCTAATCTTTCTGTTCAAGCGCCATCTAC | 0.535
27 | GATGATTGTTCTCCCAGCTGATGAATTCTGCCTTTCGAGTAAACAAATTTTCCTAATCTTTCTGTTCAAGCGCCATCTAC | 5.08
28 | GATGATTGTTCTCCCAGCTGATGAATTGTAGGAATCGAGTAAACAAATTTTCCTAATCTTTCTGTTCAAGCGCCATCTAC | 0.255
29 | GATGATTGTTCTCCCAGCTGATGAATTTGGTTCATCGAGTAAACAAATTTTCCTAATCTTTCTGTTCAAGCGCCATCTAC | 0.912
30 | GATGATTGTTCTCCCAGCTGATGAATTCCACGGATCGAGTAAACAAATTTTCCTAATCTTTCTGTTCAAGCGCCATCTAC | 0.186
31 | GATGATTGTTCTCCCAGCTGATGAATTGGGCCATTCGAGTAAACAAATTTTCCTAATCTTTCTGTTCAAGCGCCATCTAC | 3.14
32 | GATGATTGTTCTCCCAGCTGATGAATTTCTTGAATCGAGTAAACAAATTTTCCTAATCTTTCTGTTCAAGCGCCATCTAC | 0.2
33 | GATGATTGTTCTCCCAGCTGATGAATTGGTAACATCGAGTAAACAAATTTTCCTAATCTTTCTGTTCAAGCGCCATCTAC | 0.838
34 | GATGATTGTTCTCCCAGCTGATGAATTTTTCCACTCGAGTAAACAAATTTTCCTAATCTTTCTGTTCAAGCGCCATCTAC | 0.267
35 | GATGATTGTTCTCCCAGCTGATGAATTTCTACTCTCGAGTAAACAAATTTTCCTAATCTTTCTGTTCAAGCGCCATCTAC | 0.251
36 | GATGATTGTTCTCCCAGCTGATGAATTCCATCTTTCGAGTAAACAAATTTTCCTAATCTTTCTGTTCAAGCGCCATCTAC | 0.437
37 | GATGATTGTTCTCCCAGCTGATGAATTTTCAGATTCGAGTAAACAAATTTTCCTAATCTTTCTGTTCAAGCGCCATCTAC | 0.215
38 | GATGATTGTTCTCCCAGCTGATGAATTCGCCTTATCGAGTAAACAAATTTTCCTAATCTTTCTGTTCAAGCGCCATCTAC | 0.916
39 | GATGATTGTTCTCCCAGCTGATGAATTTCGTCGGTCGAGTAAACAAATTTTCCTAATCTTTCTGTTCAAGCGCCATCTAC | 0.311
40 | GATGATTGTTCTCCCAGCTGATGAATTCTAGACGTCGAGTAAACAAATTTTCCTAATCTTTCTGTTCAAGCGCCATCTAC | 0.27
